Source: patent US11685745B2, “Substituted benzoxazole and benzofuran compounds as PDE7 inhibitors” (Dart NeuroScience, LLC, priority 2017, dated 2023)

These molecules were tested against N-terminal truncated recombinant human PDE7B enzyme (Homo sapiens (Human), UniProt Q9NP56) (assay: biochemical).

Q: `CN(Cc1nc2cc(Cl)c3c(c2o1)C1(CCCCC1)NC(=O)N3)CC1CCOCC1` [Example 81, 5-Chloro-2-{[methyl(oxan-4-ylmethyl)amino]methyl}-7,8-dihydro-6H-spiro[[1,3]oxazolo[5,4-f]quinazoline-9,1′-cyclohexane]-7-one] was tested. Which IC50 did it give?
A: 10 to 100 nM

Q: Which IC50 does the source give for `CN(C)C(=O)c1nc2cc(Cl)c3c(c2o1)C1(CCCCC1)NC(=O)N3` [Example 181, 5-Chloro-N,N-dimethyl-7-oxo-7,8-dihydro-6H-spiro[[1,3]oxazolo[5,4-f]quinazoline-9,1′-cyclohexane]-2-carboxamide] here?
A: 10 to 100 nM

Q: `O=C1Nc2c(Cl)cc3cc(CNCc4ccccn4)oc3c2C2(CCCCC2)N1` [Example 480, 5′-Chloro-2′-{[(pyridin-2-ylmethyl)amino]methyl}-7′,8′-dihydro-6′H-spiro[cyclohexane-1,9′-furo[2,3-f]quinazoline]-7′-one] was tested. Which IC50 did it give?
A: 10 to 100 nM

Q: How did the IC50 turn out when `O=C1Nc2c(Cl)cc3nc(CNCC4(F)COC4)oc3c2C2(CCCCC2)N1` [Example 83, 5-Chloro-2-({[(3-fluorooxetan-3-yl)methyl]amino}methyl)-7,8-dihydro-6H-spiro[[1,3]oxazolo[5,4-f]quinazoline-9,1′-cyclohexane]-7-one] was run?
A: 10 to 100 nM

Q: How did the IC50 turn out when `CN(Cc1ccsc1)C(=O)c1cc2cc(Cl)c3c(c2o1)C1(CCCCC1)NC(=O)N3` [Example 405, 5′-Chloro-N-methyl-7′-oxo-N-(thiophen-3-ylmethyl)-7′,8′-dihydro-6′H-spiro[cyclohexane-1,9′-furo[2,3-f]quinazoline]-2′-carboxamide] was run?
A: 10 to 100 nM

Q: Which IC50 does the source give for `O=C1Nc2c(Cl)cc3nc(CNC[C@@H]4CCOC4)oc3c2C2(CCC(F)(F)CC2)N1` [Example 169, 5-Chloro-4′,4′-difluoro-2-({[(3S)-oxolan-3-ylmethyl]amino}methyl)-7,8-dihydro-6H-spiro[[1,3]oxazolo[5,4-f]quinazoline-9,1′-cyclohexane]-7-one] here?
A: 10 to 100 nM

Q: `COCCN1CCN(C(=O)c2nc3cc(Cl)c4c(c3o2)C2(CCCCC2)NC(=O)N4)CC1` [Example 196, 5-Chloro-2-[4-(2-methoxyethyl)piperazine-1-carbonyl]-7,8-dihydro-6H-spiro[[1,3]oxazolo[5,4-f]quinazoline-9,1′-cyclohexane]-7-one] was tested. Which IC50 did it give?
A: 10 to 100 nM

Q: Which IC50 does the source give for `O=C1Nc2c(Cl)cc3nc(CNCC(F)(F)C4CCC4)oc3c2C2(CCCCC2)N1` [Example 100, 5-Chloro-2-{[(2-cyclobutyl-2,2-difluoroethyl)amino]methyl}-7,8-dihydro-6H-spiro[[1,3]oxazolo[5,4-f]quinazoline-9,1′-cyclohexane]-7-one] here?
A: 100 to 1000 nM

Q: With `CN(CCc1ccccn1)C(=O)c1cc2cc(Cl)c3c(c2o1)C1(CCCCC1)NC(=O)N3` [Example 266, 5′-Chloro-N-methyl-7′-oxo-N-[2-(pyridin-2-yl)ethyl]-7′,8′-dihydro-6′H-spiro[cyclohexane-1,9′-furo[2,3-f]quinazoline]-2′-carboxamide] as the molecule, how does the IC50 read?
A: 10 to 100 nM

Q: `Cc1nn(C)c(C)c1CN(C)C(=O)c1cc2cc(Cl)c3c(c2o1)C1(CCCCC1)NC(=O)N3` [Example 310, 5′-Chloro-N-methyl-7′-oxo-N-[(trimethyl-1H-pyrazol-4-yl)methyl]-7′,8′-dihydro-6′H-spiro[cyclohexane-1,9′-furo[2,3-f]quinazoline]-2′-carboxamide] was tested. Which IC50 did it give?
A: 10 to 100 nM

Q: For `CCOC(=O)CN1CCN(C(=O)c2cc3cc(Cl)c4c(c3o2)C2(CCCCC2)NC(=O)N4)CC1` [Example 284, Ethyl 2-[4-({5′-chloro-7′-oxo-7′,8′-dihydro-6′H-spiro[cyclohexane-1,9′-furo[2,3-f]quinazoline]-2′-yl}carbonyl)piperazin-1-yl]acetate], which IC50 is on record?
A: 10 to 100 nM

Q: For `O=C1Nc2c(Cl)cc3cc(CN4CCCCC4)oc3c2C2(CCCCC2)N1` [Example 241, 5′-Chloro-2′-(piperidin-1-ylmethyl)-7′,8′-dihydro-6′H-spiro[cyclohexane-1,9′-furo[2,3-f]quinazoline]-7′-one], which IC50 is on record?
A: 100 to 1000 nM

Q: Which IC50 does the source give for `CC(C)N(C)Cc1cc2cc(Cl)c3c(c2o1)C1(CCCCC1)NC(=O)N3` [Example 530, 5′-Chloro-2′-{[methyl(propan-2-yl)amino]methyl}-7′,8′-dihydro-6′H-spiro[cyclohexane-1,9′-furo[2,3-f]quinazoline]-7′-one] here?
A: 100 to 1000 nM

Q: For `CN(CCN1CCOCC1)Cc1nc2cc(Cl)c3c(c2o1)C1(CCCCC1)NC(=O)N3` [Example 124, 5-Chloro-2-({methyl[2-(morpholin-4-yl)ethyl]amino}methyl)-7,8-dihydro-6H-spiro[[1,3]oxazolo[5,4-f]quinazoline-9,1′-cyclohexane]-7-one], which IC50 is on record?
A: 10 to 100 nM

Q: `O=C1Nc2c(Cl)cc3cc(CN4C[C@@H]5C[C@H]4CO5)oc3c2C2(CCCCC2)N1` [Example 240, 5′-Chloro-2′-[(1S,4S)-2-oxa-5-azabicyclo[2.2.1]heptan-5-ylmethyl]-7′,8′-dihydro-6′H-spiro[cyclohexane-1,9′-furo[2,3-f]quinazoline]-7′-one] was tested. Which IC50 did it give?
A: 10 to 100 nM

Q: How did the IC50 turn out when `NC(=O)c1nc2cc(Cl)c3c(c2o1)C1(CCCCC1)NC(=O)N3` [Example 25, 5′-Chloro-7′-oxo-7′,8′-dihydro-6′H-spiro[cyclohexane-1,9′-oxazolo[5,4-f]quinazoline]-2′-carboxamide] was run?
A: 100 to 1000 nM

Q: How did the IC50 turn out when `O=C1Nc2c(Cl)cc3nc(C(=O)NC[C@@H]4CCOC4)oc3c2C2(CCCCC2)N1` [Example 218, 5-Chloro-7-oxo-N-[(3S)-oxolan-3-ylmethyl]-7,8-dihydro-6H-spiro[[1,3]oxazolo[5,4-f]quinazoline-9,1′-cyclohexane]-2-carboxamide] was run?
A: 10 to 100 nM

Q: Which IC50 does the source give for `O=C1Nc2c(Cl)cc3cc(C(=O)NCCN4CCOCC4)oc3c2C2(CCCCC2)N1` [Example 315, 5′-Chloro-N-[2-(morpholin-4-yl)ethyl]-7′-oxo-7′,8′-dihydro-6′H-spiro[cyclohexane-1,9′-furo[2,3-f]quinazoline]-2′-carboxamide] here?
A: 100 to 1000 nM

Q: With `O=C1Nc2c(Cl)cc3cc(C(=O)NCCc4cccs4)oc3c2C2(CCCCC2)N1` [Example 271, 5′-Chloro-7′-oxo-N-[2-(thiophen-2-yl)ethyl]-7′,8′-dihydro-6′H-spiro[cyclohexane-1,9′-furo[2,3-f]quinazoline]-2′-carboxamide] as the molecule, how does the IC50 read?
A: 100 to 1000 nM

Q: `O=C1Nc2c(Cl)cc3cc(C(=O)N4CCC5(CC4)NCCc4sccc45)oc3c2C2(CCCCC2)N1` [Example 348, 5′-Chloro-2′-({6′,7′-dihydro-5′H-spiro[piperidine-4,4′-thieno[3,2-c]pyridine]-1-yl}carbonyl)-7′,8′-dihydro-6′H-spiro[cyclohexane-1,9′-furo[2,3-f]quinazoline]-7′-one] was tested. Which IC50 did it give?
A: 10 to 100 nM

Q: How did the IC50 turn out when `COC[C@@H]1CCN(C(=O)c2nc3cc(Cl)c4c(c3o2)C2(CCCCC2)NC(=O)N4)C1` [Example 203, 5-Chloro-2-[(3R)-3-(methoxymethyl)pyrrolidine-1-carbonyl]-7,8-dihydro-6H-spiro[[1,3]oxazolo[5,4-f]quinazoline-9,1′-cyclohexane]-7-one] was run?
A: 10 to 100 nM

Q: With `O=C1Nc2c(Cl)cc3nc(C(=O)N4CCOCC4)oc3c2C2(CCCCC2)N1` [Example 180, 5-Chloro-2-(morpholine-4-carbonyl)-7,8-dihydro-6H-spiro[[1,3]oxazolo[5,4-f]quinazoline-9,1′-cyclohexane]-7-one] as the molecule, how does the IC50 read?
A: 100 to 1000 nM

Q: `Cc1nc2cc(Cl)c3c(c2o1)C1(CCCCC1)NC(=O)N3` [Example 14, 5′-Chloro-2′-methyl-6′H-spiro[cyclohexane-1,9′-oxazolo[5,4-f]quinazolin]-7′(8′H)-one] was tested. Which IC50 did it give?
A: 100 to 1000 nM

Q: Which IC50 does the source give for `O=C1Nc2c(Cl)cc3cc(C(=O)N(CCO)Cc4ccccc4)oc3c2C2(CCCCC2)N1` [Example 438, N-Benzyl-5′-chloro-N-(2-hydroxyethyl)-7′-oxo-7′,8′-dihydro-6′H-spiro[cyclohexane-1,9′-furo[2,3-f]quinazoline]-2′-carboxamide] here?
A: 10 to 100 nM

Q: Which IC50 does the source give for `O=C1Nc2c(Cl)cc3cc(C(=O)NC4CC4)oc3c2C2(CCCCC2)N1` [Example 402, 5′-Chloro-N-cyclopropyl-7′-oxo-7′,8′-dihydro-6′H-spiro[cyclohexane-1,9′-furo[2,3-f]quinazoline]-2′-carboxamide] here?
A: 100 to 1000 nM

Q: `CC1(NC(=O)c2cc3cc(Cl)c4c(c3o2)C2(CCCCC2)NC(=O)N4)CCOCC1` [Example 360, 5′-Chloro-N-(4-methyloxan-4-yl)-7′-oxo-7′,8′-dihydro-6′H-spiro[cyclohexane-1,9′-furo[2,3-f]quinazoline]-2′-carboxamide] was tested. Which IC50 did it give?
A: 10 to 100 nM

Q: Which IC50 does the source give for `CC1(C)CN(C(=O)c2cc3cc(Cl)c4c(c3o2)C2(CCCCC2)NC(=O)N4)CCO1` [Example 431, 5′-Chloro-2′-(2,2-dimethylmorpholine-4-carbonyl)-7′,8′-dihydro-6′H-spiro[cyclohexane-1,9′-furo[2,3-f]quinazoline]-7′-one] here?
A: 10 to 100 nM

Q: For `CN(CCCO)Cc1cc2cc(Cl)c3c(c2o1)C1(CCCCC1)NC(=O)N3` [Example 494, 5′-Chloro-2′-{[(3-hydroxypropyl)(methyl)amino]methyl}-7′,8′-dihydro-6′H-spiro[cyclohexane-1,9′-furo[2,3-f]quinazoline]-7′-one], which IC50 is on record?
A: 100 to 1000 nM

Q: How did the IC50 turn out when `CN(CCC(O)c1ccccc1)C(=O)c1cc2cc(Cl)c3c(c2o1)C1(CCCCC1)NC(=O)N3` (centres unmarked) [Example 277, 5′-Chloro-N-(3-hydroxy-3-phenylpropyl)-N-methyl-7′-oxo-7′,8′-dihydro-6′H-spiro[cyclohexane-1,9′-furo[2,3-f]quinazoline]-2′-carboxamide] was run?
A: 10 to 100 nM

Q: For `O=C1Nc2c(Cl)cc3nc(CNC[C@H]4CCOC4)oc3c2C2(CCCCC2)N1` [Example 162, 5-Chloro-2-({[(3R)-oxolan-3-ylmethyl]amino}methyl)-7,8-dihydro-6H-spiro[[1,3]oxazolo[5,4-f]quinazoline-9,1′-cyclohexane]-7-one], which IC50 is on record?
A: 10 to 100 nM

Q: `CC(C)OCCNC(=O)c1cc2cc(Cl)c3c(c2o1)C1(CCCCC1)NC(=O)N3` [Example 246, 5′-Chloro-7′-oxo-N-[2-(propan-2-yloxy)ethyl]-7′,8′-dihydro-6′H-spiro[cyclohexane-1,9′-furo[2,3-f]quinazoline]-2′-carboxamide] was tested. Which IC50 did it give?
A: 10 to 100 nM

Q: `O=C1Nc2c(Cl)cc3nc(CNCc4ccccn4)oc3c2C2(CCCCC2)N1` [Example 59, 5-Chloro-2-{[(pyridin-2-ylmethyl)amino]methyl}-7,8-dihydro-6H-spiro[[1,3]oxazolo[5,4-f]quinazoline-9,1′-cyclohexane]-7-one] was tested. Which IC50 did it give?
A: 100 to 1000 nM
